Test results as given in PubChem BioAssay AID1671193 (National Center for Advancing Translational Sciences (NCATS), 2021).
Hit rate of the full screen: of about 150,000 compounds, about 180 (0.12%) were called active. The shares of active, inactive and inconclusive entries below differ from those in the screen. Calls come from the whole dose curve; as a rule, active = well fitted cell-killing curve with a large enough effect; inconclusive = small, poorly fitted or top-dose-only effect, or effect the other way; inactive = flat fitted curve, though single readings scatter. Potencies beside an inconclusive call are fits to weak or partial responses and may not hold up.

Assay: GF-AFC viability counterscreen for inhibitors of alpha-synuclein gene (SNCA) expression; note: nearly all actives have a fitted effect of over 30% in size;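 for activity change, negative = cytotoxicity: 0% = DMSO-treated cells and -100% = medium-only wells without cells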
Details: HEK-293-SNCA-luc viability, GF-AFC fluorescence, 24 h; activity change, negative = cytotoxicity: at 57.1 µM (top of the series) unless noted
Procedure, shortened: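 HEK-293-SNCA-luc cells (1500/well) plated 24 h, then exposed 24 h to a dilution series; GF-AFC added 30 min at 37C, fluorescence 405/540 nm; normalised to medium-only and DMSO wells, Hill fit.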
Potency is the fitted concentration of half-maximal effect; tags give direction and shape of the fitted curve.

SMILES | Potency | activity change, negative = cytotoxicity
O=c1c(-c2cccs2)nc2cnc(N3CCOCC3)nc2n1Cc1ccc(F)cc1 | inconclusive: 1.78 µM [rising, full curve, poor fit] | 
COc1ccc(CN2CCN(C3CCN(c4ccccc4)CC3)CC2CCO)cc1C (configuration not stated) | inconclusive: 39.8 µM [cytotoxic, single point] | 
Cn1c([C@H]2CCN(Cc3ccc(F)c(F)c3)C2)nc2ccccc21 | inactive | 
CCc1nc2ccc(C(=O)N3CCN(c4ccccc4)CC3)cc2nc1CC | inconclusive: 28.2 µM [cytotoxic, single point] | 
CN(C)C[C@@H]1CN(Cc2ccncc2)C[C@H]1NC(=O)C1CCOCC1 | inconclusive: 0.708 µM [rising, full curve] | 
N#Cc1cccc(OCc2nc3c(n2Cc2ccccc2)C(=O)N(Cc2ccccc2F)CCN3)c1 | inconclusive: 39.8 µM [cytotoxic, partial curve, poor fit] | 
COc1ccccc1-c1cc2nc(C)c(CCC(=O)Nc3ccc(Br)c(C)c3)c(C)n2n1 | inconclusive: 0.398 µM [cytotoxic, full curve, poor fit] | 
COc1ccc(S(=O)(=O)NC[C@H]2COCc3nc4c(C)cccc4n32)cc1 | inconclusive: 28.2 µM [cytotoxic, single point] | 
CCN1c2cc(C(N)=O)ccc2C(=O)N2CCCCC21 (configuration not stated) |  | inactive: 21.1% [at 12.5 µM]
COc1ccc(-c2nnc(C3CCN(C(=O)c4ccccc4F)CC3)o2)cc1 | inconclusive: 10 µM [cytotoxic, partial curve, poor fit] | 
COCCNC(=O)c1ccc2c(c1)N(C)C(CC(=O)NCc1ccon1)CO2 (configuration not stated) | inconclusive: 25.1 µM [cytotoxic, single point] | 
CN(C)c1ncc2nc(-c3ccccc3)c(=O)n(Cc3ccc(F)cc3)c2n1 | inconclusive: 3.16 µM [rising, full curve] | 
C[C@@H]1CN(Cc2nc3c(n2Cc2ccccc2)C(=O)N(Cc2ccccc2F)CCN3)C[C@H](C)O1 | inactive | 
O=C(Cc1ccccn1)NC1CCN(C(=O)c2ccc(-c3cncnc3)cc2)CC1 |  | inactive: -0.702% [at 12.5 µM]
O=c1nc(-c2ccccn2)sc2ccccc12 | inactive | 
COc1ccc(CN2CC(c3nc(Cc4cccnc4)no3)C2)c(OC)c1 | inconclusive: 31.6 µM [cytotoxic, single point] | 
O=C(c1nc(-c2cccnc2)c2ccccn12)N1CCOCC1 | inactive | 
O=C(Cn1c(=O)n(-c2cccc(Cl)c2)c(=O)c2sc3ccccc3c21)N1CCCC1 | inconclusive: 0.891 µM [cytotoxic, full curve, poor fit] | 
Cn1cc(CC(=O)N2CCCc3ncc(C(=O)NCc4ccoc4)cc32)c2ccccc21 | inconclusive: 10 µM [cytotoxic, full curve, poor fit] | 
CCc1ccc2oc(-c3ccc(NC(=O)c4ccc(OC)c(Br)c4)cc3)nc2c1 | inactive | 
COc1ccc(-c2nc(-c3ccccc3)nc3c2CN(C(=O)c2ccc(C)cc2)CC3)cc1 | inconclusive: 6.31 µM [cytotoxic, partial curve, poor fit] | 

SMILES | Potency | activity change, negative = cytotoxicity
CC1(C)[C@H](Cc2cc(CC3CCCCC3)on2)C[C@@H]1NC(=O)c1ccccc1 | inconclusive: 56.2 µM [cytotoxic, single point] | 
COc1ccc(-c2noc([C@@H]3C[C@H](NS(=O)(=O)c4ccc5ccccc5c4)CN3C)n2)cc1 | inactive | 
COc1ccc2c(CNCCc3cccs3)c(C(=O)O)n(Cc3ccccc3)c2c1 | inconclusive: 31.6 µM [cytotoxic, single point] | 
COc1ccc(-c2cn3cc(C(=O)NCc4ccc(Cl)cc4)nc3s2)cc1 | inactive | 
COc1cccc(Nc2ncc3nc(-c4cc(F)cc(F)c4)c(=O)n(C4CC4)c3n2)c1 | inconclusive: 2.51 µM [rising, partial curve, poor fit] | 
CN1CCCCCC(O)c2cc(C(=O)NCCc3c[nH]c4ccccc34)ccc21 (configuration not stated) | inactive | 
CC(C)c1noc(-c2cccn3c(CNC(=O)CCC4CCCC4)nnc23)n1 | inactive | 
Cc1ccc(OC2(C(=O)O)CCN(Cc3ccc(CO)o3)CC2)cc1 | inactive | 
COCCNC(=O)CCCN1C(=O)COc2ccc(C(=O)COc3ccc(C)cc3OC)cc21 | inactive | 
CCOC(=O)c1cccc(Nc2c3c(nc4ccccc24)CCC3)c1 | inconclusive: 39.8 µM [cytotoxic, single point] | 
Cc1cccc(NC(=O)c2c(NC(=O)C(F)(F)F)sc3c2CCCCC3)c1 | inconclusive: 10 µM [cytotoxic, partial curve, poor fit] | 
CCc1n[nH]c(CC2CCN(C(=O)COc3ccc(F)cc3)CC2)n1 | inactive | 
Cc1cc(C)cc(-c2ccc(CN)cc2)c1 | inconclusive: 56.2 µM [cytotoxic, single point] | 
C=CCn1cc2c3c(cccc31)[C@H](CC(C)C)N[C@H](C(=O)NCc1ccccc1)C2 | inactive | 
Cc1cccc(-c2nnc3n(CCc4ccccc4)c(=O)c4ccccc4n23)c1 | inconclusive: 44.7 µM [cytotoxic, single point] | 
COCC(=O)N[C@@H]1CN(Cc2cn(C)nc2C)C[C@H]1CO | inconclusive: 2.51 µM [cytotoxic, partial curve, poor fit] | 
COc1ccccc1CNC(=O)C1CCN(c2nccc(Nc3ccc(C)cc3)n2)CC1 | inconclusive: 5.01 µM [cytotoxic, single point] | 
Cc1n[nH]c(C)c1CNC(=O)C1CCN(C(=O)c2ncn3c2COC(c2ccc(F)cc2)C3)CC1 (configuration not stated) | inactive | 
COC(=O)CCNC(=O)C1c2ccccc2C(=O)N(CC(C)C)C12CCCC2 (configuration not stated) | inconclusive: 1.78 µM [cytotoxic, full curve, poor fit] | 
C=C(C)C(=O)O[C@H]1CC2=CC(C/C(C)=C\[C@H]3OC(=O)C(=C)[C@H]13)OC2=O (some centres not stated) | inconclusive: 14.7 µM [cytotoxic, partial curve, poor fit] | 
COc1cccc(-n2c(=O)c3sc4ccccc4c3n(CC(=O)Nc3ccccc3OC)c2=O)c1 | inconclusive: 1.26 µM [cytotoxic, full curve] | 
